# Laboratory results from PubChem BioAssay AID1454 (National Center for Advancing Translational Sciences (NCATS), 2008).
# “And” between values parts separate entries of the source, which are not always exact repeats. Equal values may be shown once. Hit rate of the full screen: of about 130,000 compounds, about 550 (0.42%) were called active. Inconclusive results (about 4%) are left out. The call rests on the fitted dose curve; in most records, active means well fitted inhibition curve with a large enough effect; inconclusive means small, poorly fitted or top-dose-only effect, or effect the other way; inactive means flat fitted curve, though single readings scatter. The list shows a part of the results, in another mix than the full data. A structure can be active in one record and inactive in another.
# Experiment: qHTS Assay for Inhibitors of the ERK Signaling Pathway using a Homogeneous Screening Assay; Stimulation with EGF; further: nearly all actives have a fitted effect of over 55% in size;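 on activity change, negative = inhibition: plate controls were stimulated vehicle wells for no effect and unstimulated vehicle basal for full effect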
# Settings: HEK293-V1b, EGF-stimulated phospho-ERK AlphaScreen; activity change, negative = inhibition: at the top concentration
# Procedure, shortened: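 HEK293 cells stably expressing V1b receptor, serum-reduced (1% FBS) overnight, pretreated 30 min with compound, then stimulated 5 min with 25 nM EGF; phospho-ERK detected by AlphaScreen SureFire. AC50 from Hill fits, normalized to DMSO and EGF.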
# Potency means the concentration at half of the fitted maximal effect.
SMILES,"activity change, negative = inhibition",Potency
C=C1/C(=C\C=C2/CCC[C@]3(C)[C@@H]([C@H](C)CCCC(C)(C)O)CC[C@@H]23)C[C@@H](O)C[C@@H]1O,inactive: -7.36%,
CC1OC(OCC2OC(Oc3c(-c4ccc(O)c(O)c4)oc4cc(O)cc(O)c4c3=O)C(O)C(O)C2O)[C@@H](O)C(O)C1O (stereo partly specified),inactive: 26.7%,
CC[C@H](C)C(=O)O[C@H]1CCC=C2C=C[C@H](C)[C@H](CC[C@@H]3C[C@H](O)CC(=O)O3)[C@H]21,inactive: -0.958%,
CCOc1cc(CC(=O)N[C@@H](CC(C)C)c2ccccc2N2CCCCC2)ccc1C(=O)O,inactive: -11.4% [at 25.7 µM],
O=C(Oc1ccc(Nc2ncnc3ccccc23)cc1)c1cccnc1,,active: 28.2 µM
CC(C(=O)O)c1cccc(C(=O)c2ccccc2)c1 (stereo unspecified),,inactive
CC(=O)OC1C[C@]2(C)[C@@H](CC(O)C3[C@]4(C)CCC(O)C(C)[C@@H]4CC[C@]32C)/C1=C(/CCC=C(C)C)C(=O)O (stereo partly specified),inactive: -0.444%,
Cc1ccc(CN2CCN(/N=C\C(Br)=C\c3ccccc3)CC2)cc1,inactive: 2.47%,
Nc1c2c(nc3ccccc13)CCCC2,,inactive
C[c-]1[c-](C)[c-](C)[c-](C)[c-]1C.[Fe].c1cc2nccc(N3CCCC3)[c-]2c1 (stereo unspecified),inactive: -1.87% [at 57.5 µM],
CN1C(=O)S/C(=C\c2ccccc2OCc2ccc(C(=O)O)cc2)C1=O,inactive: -3.26%,
CO[C@@H]1C=CO[C@]2(C)Oc3c(C)c(O)c4c(O)c(c(C=NN5CCN(C)CC5)c(O)c4c3C2=O)NC(=O)C(C)=CC=C[C@H](C)[C@H](O)[C@H](C)[C@H](O)[C@H](C)[C@H](OC(C)=O)[C@H]1C,inactive: 3.64% [at 25.7 µM],
O=c1c(O[C@@H]2O[C@H](CO)[C@@H](O)[C@H](O)[C@H]2O)c(-c2ccc(O)c(O)c2)oc2cc(O)cc(O)c12,inactive: 0.726% [at 57.5 µM],
CCCCCC(O)c1cccc(OCc2ccc3ccccc3n2)c1 (stereo unspecified),inactive: 2.35%,
O=C1C=C(Nc2ccccc2)C(=O)c2ccccc21,,active: 25.1 µM
O=C(Nc1ccc(CN2CCOCC2)cc1)c1ccc(-c2ccc(Cl)cc2Cl)o1,,active: 25.1 µM
Cc1c(N2C(=O)/C(=C/C3CC=CCC3)SC2=S)c(=O)n(-c2ccccc2)n1C (stereo unspecified),inactive: 1.12% [at 57.5 µM],
C=CC[n+]1ccc(/C=C2\C=Cc3cc(C)ccc3N2CC)c2ccccc21,,active: 14.1 µM
CNCCCC12CCC(c3ccccc31)c1ccccc12,,inactive

SMILES,"activity change, negative = inhibition",Potency
Cc1coc2c1C(=O)C(=O)c1c-2ccc2c1CCCC2(C)C,inactive: -22%,
Cn1c(N)c(C(=O)COC(=O)c2cc(C3CC3)nc3ccccc23)c(=O)n(C)c1=O,inactive: 8.6%,
COc1ccc(-c2nc(C#N)c(NCCc3ccccc3)o2)cc1,,active: 28.2 µM
CCCCC[C@H](O)/C=C/[C@H]1[C@H](O)CC(=O)[C@@H]1C/C=C\CCCC(=O)O,inactive: -25.7%,
CCOc1ccc(N/C(C)=C/C(=O)c2ccc3c(c2)OCCO3)cc1,inactive: 0.441% [at 57.5 µM],
CC1=C(C(=O)O)N2C(=O)C(NC(=O)C(N)c3ccccc3)C2SC1 (stereo unspecified),inactive: 22.3%,
NC1CONC1=O (stereo unspecified),,inactive
O=C(C1=C[C@@H](c2ccc(Br)cc2)C[C@@H](OCc2ccc(CO)cc2)O1)N1CCOCC1,inactive: -11.1% [at 57.5 µM],
Cc1ncc([N+](=O)[O-])n1CC(C)O (stereo unspecified),,inactive
CC(=O)O[C@H]1CC[C@H]2[C@@H]3CCc4cc(O)ccc4[C@H]3CC[C@]12C,inactive: -8.52% [at 57.5 µM],
O=C(O)c1ccc2cc(-c3ccc(O)c(C45CC6CC(CC(C6)C4)C5)c3)ccc2c1,,active: 25.1 µM
Oc1ccc(-c2nc(-c3ccc(F)cc3)c(-c3ccncc3)[nH]2)cc1,inactive: 4.43%,
O=C(NCc1ccccc1)C1=C[C@H](c2csc3ccccc23)C[C@H](OCc2ccc(CO)cc2)O1,inactive: -5.22% [at 57.5 µM],
CC1=NN(c2ccccc2)C(=O)/C1=C\c1cn(C)c2ccccc12,,active: 14.1 µM
O=C(CCCN1C(=O)/C(=C\c2ccccc2)SC1=S)Nc1ccccc1O,inactive: 13.8% [at 57.5 µM],
COc1cc(/C=N/Nc2nc(-c3ccc(S(=O)(=O)N(C)C)cc3)cs2)ccc1O,,active: 8.91 µM
N#C/C(=C\c1ccc(O)c(O)c1)C(=O)NCCCc1ccccc1,inactive: -2.78%,
CC(C)OC(=O)C(C)(C)Oc1ccc(C(=O)c2ccc(Cl)cc2)cc1,,inactive
C[C@@H](CCc1ccc(O)cc1)NCCc1ccc(O)c(O)c1,,inactive

SMILES,"activity change, negative = inhibition",Potency
CC[C@H]1OC(=O)[C@H](C)[C@@H](O[C@H]2C[C@@](C)(OC)[C@@H](O)[C@H](C)O2)C(C)[C@@H](O[C@@H]2O[C@H](C)C[C@H](N(C)C)[C@@H]2O)[C@](C)(OC)C[C@@H](C)C(=O)[C@H](C)[C@@H](O)[C@]1(C)O (stereo partly specified),inactive: 0.137%,
Nc1nc(Cl)nc2c1ncn2[C@@H]1O[C@H](CO)[C@@H](O)[C@H]1O,inactive: -12.8% [at 57.5 µM],
CCC[C@@H]1C[C@@]1(CCC)[C@@H](NP(=O)(c1ccccc1)c1ccccc1)c1ccc(C(=O)OC)cc1,inactive: 12.1%,
c1ccc2c(CC3=NCCN3)cccc2c1,inactive: 6.01%,
Cc1cc(C(=O)N[C@H](c2ccccc2)[C@@]2(C)C[C@@H]2[C@@H](C)C(=O)Nc2ccc3ccccc3c2)n(C)n1,,inactive
CCN(CC)CC(=O)Nc1c(C)cccc1C,,inactive
COc1cccc2c1C(=O)c1c(O)c3c(c(O)c1C2=O)C[C@@](O)(C(C)=O)C[C@@H]3O[C@H]1C[C@H](N)[C@H](O)[C@H](C)O1,,inactive and active: 25.1 µM
CCCC[C@H](CC)CN=C(N)NC(N)=NCCCCCCN=C(N)NC(N)=NC[C@@H](CC)CCCC,inactive: 5.38% [at 25.7 µM],
Cc1cccc(Nc2ncnc3ccc(Br)cc23)c1,,active: 1.78 µM
COC(CNC(=O)c1ccc2c3c(onc13)-c1ccccc1C2=O)OC,,active: 35.5 µM
CNc1cccc2c1C(=O)c1ccccc1C2=O,,active: 10 µM
CC(=O)O[C@@]1(C(C)=O)CCC2C3C=C(Cl)C4=CC(=O)CC[C@]4(C)C3CC[C@]21C (stereo partly specified),inactive: 11.6%,
O=C(O)/C=C\c1ccc(O)c(O)c1,inactive: 4.66% [at 25.7 µM],
CCCc1c(-c2ccc(O)cc2)nn(-c2ccc(O)cc2)c1-c1ccc(O)cc1,,inactive
Cc1cc(N=Nc2ccc(Cl)cc2)cc(CN2CCOCC2)c1O,,active: 15.8 µM
COc1ccc(/C=C/C(=O)Nc2ccccc2C(=O)O)cc1OC,inactive: 3.55% [at 57.5 µM],
CN1CCN(CCCN2c3ccccc3Sc3ccc(C(F)(F)F)cc32)CC1,,inactive
Cc1cc(C)[n+]2[nH]c(N)c(N=Nc3ccccc3)c2n1,inactive: 3.58% [at 57.5 µM],
